This note sets out measurements from publication PMC4336329 (PLoS ONE, 2015).

Molecules are shown by their SMILES. In all, about 310,000 compounds went through this assay and about 14,000 (4.5%) showed an effect of 50% or more. The effect is printed as a negative number. The list shows a part of the results.
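Further: peak tail current of the secondary pulse compared with the same well before compound.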

The target of the test is human ether-à-go-go-related gene (hERG) potassium channel (human, UniProt Q12809). The test is described as follows: primary screen, population patch clamp on CHO cells stably expressing hERG.
Sequence of human ether-à-go-go-related gene (hERG) potassium channel (Q12809 whole entry, looked up): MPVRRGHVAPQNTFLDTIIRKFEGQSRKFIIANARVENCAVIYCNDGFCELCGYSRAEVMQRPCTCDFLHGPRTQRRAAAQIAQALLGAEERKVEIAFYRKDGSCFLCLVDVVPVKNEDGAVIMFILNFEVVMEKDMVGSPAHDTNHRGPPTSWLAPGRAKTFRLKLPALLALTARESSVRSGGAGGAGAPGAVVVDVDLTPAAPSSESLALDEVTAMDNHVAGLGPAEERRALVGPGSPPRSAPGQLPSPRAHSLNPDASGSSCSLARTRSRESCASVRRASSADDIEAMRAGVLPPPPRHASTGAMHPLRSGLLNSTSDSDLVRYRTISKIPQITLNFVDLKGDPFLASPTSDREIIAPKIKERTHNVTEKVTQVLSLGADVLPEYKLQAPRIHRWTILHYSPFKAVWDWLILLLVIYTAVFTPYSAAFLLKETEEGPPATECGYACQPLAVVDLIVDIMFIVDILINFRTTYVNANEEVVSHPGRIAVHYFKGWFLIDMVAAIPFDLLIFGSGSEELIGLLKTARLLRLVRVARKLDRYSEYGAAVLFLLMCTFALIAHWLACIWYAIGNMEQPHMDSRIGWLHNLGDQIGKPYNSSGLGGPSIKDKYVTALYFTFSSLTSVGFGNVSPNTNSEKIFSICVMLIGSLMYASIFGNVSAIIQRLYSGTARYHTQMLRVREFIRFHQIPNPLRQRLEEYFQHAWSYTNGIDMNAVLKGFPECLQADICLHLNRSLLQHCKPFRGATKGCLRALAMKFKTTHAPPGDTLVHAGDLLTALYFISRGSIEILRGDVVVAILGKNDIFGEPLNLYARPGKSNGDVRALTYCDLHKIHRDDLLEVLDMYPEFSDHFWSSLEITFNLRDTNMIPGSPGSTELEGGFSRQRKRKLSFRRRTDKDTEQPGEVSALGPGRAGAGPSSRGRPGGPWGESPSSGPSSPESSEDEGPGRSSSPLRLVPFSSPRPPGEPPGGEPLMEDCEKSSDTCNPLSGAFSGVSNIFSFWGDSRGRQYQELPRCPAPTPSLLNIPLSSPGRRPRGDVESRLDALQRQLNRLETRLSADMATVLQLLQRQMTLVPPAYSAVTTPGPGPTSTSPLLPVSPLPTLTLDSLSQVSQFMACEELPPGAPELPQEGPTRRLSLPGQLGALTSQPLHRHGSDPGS
Consider `Cc1ccsc1C(=O)NCc1ccc(F)cc1`, for which the “hERG current change (%, negative = inhibition) at 10uM” value was found to be 2.13%.
Then `Cc1cc(OCC(=O)NCC(C)C)cc(C)c1Br`, with 12%; and `Cc1cccc(Nc2cc(=O)[nH]c(=O)[nH]2)c1`, with 8.57%; and `CCOC(=O)C1=C(C)N(CCCC(=O)O)C(=O)NC1c1cccc(OC)c1` (stereo not drawn), with -3.02%.
Then `Cc1ccc(NC(=O)Cn2c(-c3ccc(F)cc3)cnc2SCC(=O)Nc2c(C)cccc2C)cc1`, with 16%; and `COc1ccccc1-c1c(C)nn2c(N3CCOCC3)cc(C)nc12`, with 2.71%.
As for `CC(C)Oc1ccc2c3c(c(=O)oc2c1)CCC3`, the “hERG current change (%, negative = inhibition) at 10uM” value is -14.2%.
Then `CCCCn1c(SCC(=O)N2CC(C)CC(C)C2)nc2cc(S(N)(=O)=O)ccc21` (stereo not drawn), with 2.81%; and `CCn1c(-c2ccc(OC)c(OC)c2)n[nH]c1=S`, with 11.1%; and `CC(C)C[C@H](NC(=O)c1nc[nH]c1C(=O)NCC(=O)OCc1ccccc1)C(=O)OC(C)(C)C`, with -15.5%.
Then `O=C1NC2NC(=O)N(C(Cc3ccccc3)C(=O)O)C2N1` (stereo not drawn), with -2.89%.
Then `O/N=C(/c1ccccc1)c1cc2cc(Br)cc(Br)c2o1`, with 15.8%.
As for `CCCc1cnc(N2CCN(C(=O)c3c(-c4ccccc4)noc3C)CC2)nc1`, the “hERG current change (%, negative = inhibition) at 10uM” value is reported as -24.5%.
To `O=C(COC(=O)CCSc1ccccc1)Nc1ccc(F)cc1Cl` belongs 6.44%.
`Cc1ccc2c(c1)CCCN2C(=O)c1ccc2c(c1)OCO2`: the “hERG current change (%, negative = inhibition) at 10uM” value is -4.53%.
To `CC(=O)N1CCc2[nH]c3ccc(C)cc3c2C1` belongs -5.4%; to `CCC(=NCCN1CCOCC1)c1c(O)n(-c2ccccc2C)c(=O)[nH]c1=O`, 17.3%; to `COC(=O)C1=NN(C(C)=O)C2(CC(=O)N(c3cc(C)cc(C)c3)C2=O)C1` (stereo not drawn), -18.4%.
Take `CCNC(=S)NNC(=O)c1ccoc1C`: the “hERG current change (%, negative = inhibition) at 10uM” value is reported as 8.97%.
`Cc1nc2ccc(NC(=O)NCc3ccco3)cc2s1`: the “hERG current change (%, negative = inhibition) at 10uM” value was found to be 20.8%.
To `O=C(c1nn2c(C(F)(F)F)cc(-c3ccccc3)nc2c1Cl)N1CCOCC1` belongs -9.9%; to `CCN(CC)CCCNC(=O)c1sc2ncn(CC(=O)Nc3ccc(C)c(Cl)c3)c(=O)c2c1C`, -13%; to `Cc1cc(C(=O)COC(=O)c2ccncc2)c(C)n1CCc1ccc(F)cc1`, 8.96%.
Then `Nc1nc(C(=O)N2CCOCC2)nn1C(=O)c1ccc(Cl)cc1`, with 6.43%; and `Cc1cc(=O)oc2cc(OC(=O)c3ccccc3)ccc12`, with 15.3%.
Then `CCOC(=O)C1=C(CS(=O)(=O)c2ccc(C)cc2)NC(=O)NC1c1cc(OC)c(OC)c(OC)c1` (stereo not drawn), with -29.8%; and `CNC(=O)COC(=O)/C=C/c1ccco1`, with 8.03%; and `Cc1ccc(NC(=O)COc2coc(CN3CCN(Cc4ccccc4)CC3)cc2=O)cc1`, with -73.3%.
For `CCN(CC(=O)NCc1ccc(Cl)cc1)C(=O)NCc1ccc(Cl)cc1`, the “hERG current change (%, negative = inhibition) at 10uM” value is -48.4%.
For `COc1cc(-c2nnc(COc3ccc4ccccc4c3)o2)cc(OC)c1OC`, the “hERG current change (%, negative = inhibition) at 10uM” value is recorded as -0.525%.
To `Cc1onc(-c2ccccc2)c1C(=O)OCc1nnc(-c2ccc([N+](=O)[O-])cc2)o1` belongs -71.5%; to `CN(CCc1cnn(C)c1)Cc1cn(C)nc1-c1ccccc1F`, 9.85%; to `O=C(CCn1cnc2ccccc21)N/N=C/c1ccc(O)cc1`, 10.8%.
To `O=C(Nc1ccccc1F)c1ccc2nc(N3C(=O)CCC3=O)sc2c1` belongs 8.18%.
Regarding `Cc1ccc(OCCN(C)C(=O)C2CCC(=O)N(Cc3ccccc3F)C2)cc1` (stereo not drawn), the “hERG current change (%, negative = inhibition) at 10uM” value was -42.9%.
To `O=C(CCN1CCN(CCO)CC1)Nc1cccc(Br)c1` belongs -19%; to `CC(NC(=O)C1CCC(=O)N1Cc1ccccc1Cl)c1ccccc1` (stereo not drawn), 12.8%; to `Cc1c(C(=O)NCCN2CCOCC2)oc2ccc(Br)cc12`, -15%.
Then `Cc1cccc(C(=O)NCC(=O)Nc2ccc(S(=O)(=O)Nc3nc(C)cc(C)n3)cc2)c1`, with 5.47%.
Then `CS(=O)(=O)N1CCC(C(=O)Nc2c(F)cccc2F)CC1`, with -3.57%; and `Cc1cccc(NC(=O)Cn2nnc(-c3ccc(CN4CCCC4)cc3)n2)c1C`, with -14%; and `COc1ccc(N2C(=O)CC(C3CCCO3)C2=O)cc1` (stereo not drawn), with 25%.
For `COC(=O)CCc1sc(Nc2ccc(Br)cc2)nc1-c1ccc(OC)cc1`, the “hERG current change (%, negative = inhibition) at 10uM” value is 4.9%.
Consider `Cc1ccc(C)c(/C(O)=C2\C(=O)C(=O)N(Cc3cccnc3)C2c2cccnc2)c1` (stereo not drawn), for which the “hERG current change (%, negative = inhibition) at 10uM” value is recorded as -36.4%.
Then `CC(C)(C)C(=O)Nc1ccc(N=Nc2ccccc2)cc1`, with -0.305%; and `O=C(Nc1ccn(Cc2ccccc2)n1)c1cccc(Cn2cc([N+](=O)[O-])cn2)c1`, with -21.9%; and `O=C(O)/C=C\C(=O)Nc1ccccc1N1CCN(c2ccccc2)CC1`, with 14.7%.
Then `CN(C)c1ccc(N2CC(C)(C)C2=O)cc1`, with 7.87%.
To `C=CCNC(=O)/C(C#N)=C/c1c(C)nn(-c2ccccc2)c1Cl` belongs -20%; to `OCCNc1c2ccccc2nc2c(F)c(F)c(F)c(F)c12`, 14.6%; to `COc1cc2cc(C(C)(C)O)oc(=O)c2cc1OC`, 13%.
For the compound `Cc1cc(C)n2nc(C(=O)N3CCCC(Nc4ccc(F)c(F)c4)C3)cc2n1` (stereo not drawn), the “hERG current change (%, negative = inhibition) at 10uM” value worked out at 5.05%.
Then `CCc1ccc(S(=O)(=O)Nc2ccc(Cl)cn2)cc1`, with 12.5%; and `CN(Cc1ccccc1)CC(O)COc1ccc(CNCc2cc3ccccc3s2)cc1` (stereo not drawn), with -25.7%.
Turning to `CCC1SC(=Nc2cccc(C)c2)NC1=O` (stereo not drawn), the “hERG current change (%, negative = inhibition) at 10uM” value was found to be 10.2%.
Then `C=C1C(=O)O[C@H]2[C@H]1[C@@H](O)CC(=C)[C@@H]1CC(=O)[C@@H](C)[C@H]21`, with 13.4%; and `N#CCSc1ccccc1NC(=O)COC(=O)CCN1C(=O)C2CC=CCC2C1=O` (stereo not drawn), with -14.6%; and `c1ccc(Oc2ccc(-c3ccnc4nc(N5CCN(c6ccccc6)CC5)nn34)cc2)cc1`, with 8.95%.
Then `CSc1ccccc1-n1nnnc1SCC(=O)Nc1ccccc1C`, with -10.3%; and `COc1ccc(-c2nnc(SCC(=O)NCCc3ccc(S(N)(=O)=O)cc3)o2)cc1OC`, with 5.73%; and `N#Cc1c2c(nc(N)c1-c1ccccc1)CCCCC2`, with 7.02%.
Then `Cc1[nH]nc(SCC(=O)N2CCC(C)CC2)c1[N+](=O)[O-]`, with 11.6%; and `CCC(=O)NCCCNc1nc2c(C)cccc2cc1C#N`, with 14.1%; and `CC1CCC(NC(=O)C2CCN(c3c4c(nc5ncnn35)CCC4)CC2)CC1` (stereo not drawn), with -19.3%.
For `COc1ccc(-n2nc(C(=O)NCC(=O)NC3CCCCCC3)c3ccccc3c2=O)cc1OC`, the “hERG current change (%, negative = inhibition) at 10uM” value is listed as -10%.
Then `CN(C)CCOc1cccc(Cl)c1.O=C(O)C(=O)O`, with 1.34%; and `Cc1ccccc1CS(=O)(=O)c1ccc(C(=O)N2CCOCC2)cc1[N+](=O)[O-]`, with -15.5%; and `COc1cc(C2SCC(=O)Nc3c2c(=O)[nH]n3C2CCCCCC2)cc(OC)c1OC` (stereo not drawn), with -2.29%.
Then `Cc1ccc(-c2nn(CC(=O)N3CCOCC3)c(=O)c3ccccc23)cc1S(=O)(=O)N(C)C`, with -22.6%.
Then `O=c1c2[nH]c3ccc(F)cc3c2ncn1CC1CCCO1` (stereo not drawn), with -16%.
On to `O=C(NCCc1c[nH]c2ccccc12)c1cc(S(=O)(=O)N2CCCCC2)ccc1N1CCOCC1`, for which the “hERG current change (%, negative = inhibition) at 10uM” value was -6.08%.
For the compound `Br.N=c1scc(-c2ccccc2)n1/N=C/c1ccco1`, the “hERG current change (%, negative = inhibition) at 10uM” value came to 2.71%.
In the case of `Fc1ccc(NC(=S)N2CCc3ccccc3C2)c(F)c1`, the “hERG current change (%, negative = inhibition) at 10uM” value came out at 12.4%.
`CCc1nnc(NC(=O)c2ccc(S(=O)(=O)N(C)c3ccccc3)cc2)o1`: the “hERG current change (%, negative = inhibition) at 10uM” value is given as -5.32%.
Then `CC(C)(C)OC(=O)NNC(=O)c1ccc(Cl)cc1`, with 11.7%.
Then `CC(C)C(=O)Nc1cccc(S(=O)(=O)c2cccc(NC(=O)C(C)C)c2)c1`, with 6.43%.
Then `CC1=C(C/C=C(\C)CCC[C@H](C)CCC[C@H](C)CCCC(C)C)C(=O)c2ccccc2C1=O`, with 12.5%; and `O=NN(CCCl)C(=O)NCCCl`, with 15.4%.
For `O=C(Nc1nc2c(s1)CCc1ccccc1-2)c1cccs1`, the “hERG current change (%, negative = inhibition) at 10uM” value is -5.72%.
To `COc1cc(/C=N/N2C(=O)CSC2=S)ccc1O` belongs 8.36%; to `CCOc1cc(Cl)c(NC(=O)CC)cc1OCC`, 14.4%; to `Cc1cccc(NC(=O)c2ccccc2OCC(=O)N2CCOCC2)c1C`, -6.62%.
To `O=C(NC(=S)Nc1nc2c(s1)CCCC2)c1ccccc1` belongs 18.4%.
To `COc1ccccc1C(CCNCc1ccccc1)c1ccc(OC(C)C)cc1` (stereo not drawn) belongs -59.3%.
On to `O=C(Cn1nnc(-c2ccccc2-n2cnnn2)n1)NCc1ccccc1`, for which the “hERG current change (%, negative = inhibition) at 10uM” value is on record as -5.93%.
To `CN(C)c1ccc(C2C=C(c3ccc(Cl)cc3OC(F)F)Nc3ncnn32)cc1` (stereo not drawn) belongs -15%; to `Cc1cccc(NC(=O)C2CCN(C(=O)c3ccc(Cl)cc3)CC2)n1`, -51.5%.
To `COc1ccc(-c2nc(CN(Cc3cnn(C)c3)C(C)C)c(C)o2)c(OC)c1` belongs -37.9%; to `CCCCC(CC)CNC(=O)CN1C(=O)NC2(CCc3ccccc32)C1=O` (stereo not drawn), -2.96%.
Then `COC(=O)CCCC(=O)N1CCC(CCC(=O)NC2CC2)CC1`, with 16.6%.
